# Source: publication PMC4336329 (PLoS ONE, 2015)
# Hit rate of the full screen: of about 310,000 compounds, about 2,200 (0.71%) showed an effect of 50% or more. The effect is printed as a negative number. The list shows a part of the results.
# Molecular target: human ether-à-go-go-related gene (hERG) potassium channel (human, UniProt Q12809)
# Assay: primary screen, population patch clamp on CHO cells stably expressing hERG
# Chain of human ether-à-go-go-related gene (hERG) potassium channel (Q12809 whole entry, looked up): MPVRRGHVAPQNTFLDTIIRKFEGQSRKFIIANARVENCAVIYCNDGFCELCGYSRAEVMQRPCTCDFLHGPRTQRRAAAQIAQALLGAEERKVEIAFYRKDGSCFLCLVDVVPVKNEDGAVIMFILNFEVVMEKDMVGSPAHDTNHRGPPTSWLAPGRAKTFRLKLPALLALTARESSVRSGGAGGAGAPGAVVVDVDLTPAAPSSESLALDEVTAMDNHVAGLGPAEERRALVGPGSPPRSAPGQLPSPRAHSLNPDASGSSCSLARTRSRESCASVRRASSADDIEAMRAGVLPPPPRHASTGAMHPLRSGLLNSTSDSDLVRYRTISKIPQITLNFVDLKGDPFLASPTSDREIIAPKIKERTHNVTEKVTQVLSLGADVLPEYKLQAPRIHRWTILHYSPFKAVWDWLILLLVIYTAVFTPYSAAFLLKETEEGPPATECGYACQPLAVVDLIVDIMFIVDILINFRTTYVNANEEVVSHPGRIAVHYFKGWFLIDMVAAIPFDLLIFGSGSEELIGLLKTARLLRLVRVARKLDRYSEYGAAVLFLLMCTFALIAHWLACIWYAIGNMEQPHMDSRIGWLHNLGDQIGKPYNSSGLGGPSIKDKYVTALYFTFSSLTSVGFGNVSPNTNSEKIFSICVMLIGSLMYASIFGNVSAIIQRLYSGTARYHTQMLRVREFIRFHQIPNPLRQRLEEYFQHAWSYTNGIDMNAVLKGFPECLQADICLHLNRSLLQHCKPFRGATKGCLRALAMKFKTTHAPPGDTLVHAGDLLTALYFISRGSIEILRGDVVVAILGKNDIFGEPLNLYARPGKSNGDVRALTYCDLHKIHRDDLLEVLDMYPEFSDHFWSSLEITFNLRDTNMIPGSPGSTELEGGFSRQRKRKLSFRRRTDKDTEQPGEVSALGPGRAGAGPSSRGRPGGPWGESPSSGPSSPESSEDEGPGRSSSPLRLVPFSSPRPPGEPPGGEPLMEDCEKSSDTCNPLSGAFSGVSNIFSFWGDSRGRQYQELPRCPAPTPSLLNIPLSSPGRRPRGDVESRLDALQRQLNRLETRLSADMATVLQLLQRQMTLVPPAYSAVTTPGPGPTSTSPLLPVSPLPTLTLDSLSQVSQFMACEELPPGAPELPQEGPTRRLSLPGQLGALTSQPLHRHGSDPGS
row,SMILES,"hERG current change (%, negative = inhibition) at 1uM [%]"
1,O=C(NCCCN1CCc2ccccc2C1)Nc1ccc(Br)cc1,-17.6
2,Cc1cccc(C)c1NC(=O)CSc1nnc(C)c(=O)[nH]1,6.55
3,Cc1ccc(C(c2sc3ncnn3c2O)N2CCCCC2)cc1 (centres unmarked),-0.286
4,Cc1nnc(NC(=O)C(C)Sc2nnc(CNC(=O)c3ccccc3F)n2C)s1 (centres unmarked),-0.155
5,Cc1c(C(=O)N2CCCCC2)c(S(=O)(=O)N(C)Cc2ccco2)c(C)n1C,1.66
6,CCCCn1c(-c2cc(Cl)ccc2OC)n[nH]c1=S,15.3
7,CCC(C)NC(=O)CSc1ccc(S(=O)(=O)N2CCN(Cc3ccccc3)CC2)cn1 (centres unmarked),3.73
8,CCOc1ccccc1NC(=O)C1CCN(C(=O)c2cccs2)CC1,19.8
9,O=c1cc[nH]c2ccc(OC(F)(F)F)cc12,12.2
10,Cc1ccc(OC(=O)NC2CCS(=O)(=O)C2)cc1C (centres unmarked),7.27
11,Cc1ccc(NC(=O)C2C3CCCCC32)cc1[N+](=O)[O-] (centres unmarked),20.1
12,Cc1ccc(S(=O)(=O)c2nc(S(C)(=O)=O)sc2N2CCC3(CC2)OCCO3)cc1,-9.73
13,COc1ccc(CNC(=O)CCn2nc(C)c3c(C)n(-c4ccccc4)nc3c2=O)c(OC)c1,15.2
14,COc1cc(/C=N/N2CCN(Cc3ccccc3)CC2)cc(OC)c1OC(C)=O,7.04
15,COc1ccc(C(=O)/C=C/c2ccc(OC)cc2OC)c(O)c1,4.49
16,Cn1c(=O)c2c(ncn2CC(=O)OCC(=O)Nc2cccc(Cl)c2)n(C)c1=O,3.85
17,CCOP(=O)(c1c(F)c(F)c(F)c(F)c1F)C(O)c1ccccc1 (centres unmarked),8.88
18,CCOC(=O)N1CCN(C(=O)c2ccc(N3C(=O)c4ccccc4C3=O)cc2)CC1,9.84
19,CCOC(=O)C1CCN(C(=O)CCc2ccc(S(=O)(=O)NCC(C)C)cc2)CC1,15.1
20,COc1ccc(N2CCN(C(c3cc(OC)ccc3OC)c3nnnn3Cc3ccco3)CC2)cc1.Cl (centres unmarked),6.49
21,Cc1cccn2cc(CSc3nnc(Nc4ccc(C(C)C)cc4)s3)nc12,10.1
22,O=[N+]([O-])c1ccc(NC(=S)NCCc2ccccc2)cc1,6.9

row,SMILES,"hERG current change (%, negative = inhibition) at 1uM [%]"
1,Cc1ccc(CN2CCC(CNC(=O)Nc3ccccc3F)CC2)cc1,-27.6
2,O=C(CSc1nnc(-c2ccco2)n1-c1ccccc1)N1CCOCC1,11.3
3,CCOC(=O)COn1c(=O)c(-c2ccc(Br)cc2)[n+]([O-])c2ccccc21,11.7
4,O=C(O)c1ccc(-c2nc(-c3ccc(Cl)c(Cl)c3)cs2)cc1,-6.63
5,CCN(CCO)c1ccc(N=Nc2cc(C)[nH]n2)cc1,14.7
6,COc1ccc(C)cc1NC(=O)NC1CCCCCCC1,16.3
7,CCOc1cc(-c2nnc(NC(=O)C3=COCCO3)o2)cc(OCC)c1OCC,2.83
8,COc1ccc(NC(=O)CN(C)S(=O)(=O)c2ccccc2)cc1,4.1
9,CCC1CCCCN1CCCNC(=O)C1CCC(CNS(=O)(=O)c2c(C)cc(C)cc2C)CC1 (centres unmarked),-3.19
10,CN(Cc1cccc(Cl)c1)C(=O)C1CCC(=O)N(C2CC2)C1 (centres unmarked),22.3
11,C=CCOc1ccc(-c2nc3c(c(=O)[nH]c(=O)n3CCCC)n2C)cc1OC,21.5
12,CC(C)(C#N)N([O-])C=C[N+](=O)C(C)(C)C#N,10.3
13,COc1ccc(Cl)cc1S(=O)(=O)N1CCC(C(=O)NCCc2ccccc2)CC1,11.3
14,CCc1nc2sc3c(c2c(=O)o1)CCCC3,22.3
15,Cc1ccc(S(=O)(=O)NCC(=O)OC(C)C(=O)Nc2ncc(Cl)cc2Cl)cc1 (centres unmarked),-4.54
16,Cc1nc2c(sc3nc4c(cc32)COC(C)(C)C4)c(=O)n1Cc1ccccc1,3.2
17,O=C(NC1CC1)C1CSC(c2cccnc2)=N1 (centres unmarked),-8.47
18,CC(C)Oc1ccc(/C(O)=C2/C(=O)C(=O)N(CCN(C)C)C2c2ccco2)cc1 (centres unmarked),12.6
19,Cc1c(Cl)cccc1NC(=O)CNC(=O)c1ccccc1F,-0.639
20,O=C(COC(=O)c1ncc(Cl)c(Cl)c1Cl)NCCc1ccccc1,13.7
21,Cc1sc2ncn(CC(=O)NCCCOC(C)C)c(=O)c2c1S(=O)(=O)N1CCN(c2ncccn2)CC1,9.15
22,COc1ccc(C(=O)N/N=C(\C)c2cccc(NC(=O)c3ccc(F)cc3)c2)c(OC)c1,-2.24
